# Laboratory results taken from article PMC12136788.
# The list shows a part of the results.
# T1: UNK ZnF1-6 (called full-length) (human, UniProt Q9C0B0 30-357)
# T1 sequence: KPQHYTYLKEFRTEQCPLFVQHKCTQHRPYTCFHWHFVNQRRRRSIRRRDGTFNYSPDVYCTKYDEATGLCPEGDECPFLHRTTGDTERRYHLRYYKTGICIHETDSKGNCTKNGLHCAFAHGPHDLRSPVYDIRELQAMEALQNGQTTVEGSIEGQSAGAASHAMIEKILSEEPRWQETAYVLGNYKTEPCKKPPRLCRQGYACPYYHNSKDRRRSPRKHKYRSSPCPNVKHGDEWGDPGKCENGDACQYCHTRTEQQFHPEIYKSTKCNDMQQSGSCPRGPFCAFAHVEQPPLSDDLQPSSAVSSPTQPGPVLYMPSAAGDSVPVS
# B1: chr16:70157515:70157662:+|3pUTR|ENSG00000090857|msi1|total|mutant (ssRNA)
# RNA: GGGAGUUCUACAGUCCGACGAUCCUCCCUAUAAUUUUCUUCAUCUCUUGCUAAUCUCUAUAAUAAGGUUGCUUUUUCUUUCUCCGUUGAGUAAACAAGUAAGCCACAGUGUUUGAAAGGGAAAAACCAUAUUGCCUUGUGUGUCAACAGAGGAUUGAGCAUCA
# B2: chr18:5392435:5392536:-|3pUTR|ENSG00000082397|msi1|FALSE|unique (ssRNA)
# RNA: GGGAGUUCUACAGUCCGACGAUCAAGCCUUAAACUGUACAGAAUUUCCACUGUAAUUAAAACUAUUUAGUGUUAGUUAUAAAUAGCCUUCAAAAAGAGAGAUUCUCCAUUACACGAUCACCUGCAUCACAGCCCAUGGUGAAUCAACAGAGGAUUGAGCAUCA
# B3: chr1:149903635:149903737:-|3pUTR|ENSG00000159164|unk|total|mutant (ssRNA)
# RNA: GGGAGUUCUACAGUCCGACGAUCGGCUGCUUUCUUUGGUGCCCUCCCCUCACCCCACUGCCGCUGUGACGUGUUGCCGUUUUCCGAUGUUUGUAAAAUGUUUAAAAAAAUGUUAAAAGGAAAAAAGUGAAAAUAACAAAAAAGCAACAGAGGAUUGAGCAUCA
# B4: chr8:76864132:76864233:+|CDS|ENSG00000091656|msi1|FALSE|bound_elsewhere (ssRNA)
# RNA: GGGAGUUCUACAGUCCGACGAUCUCAAGCUUGCACAAAGAGAAAACAAUCAAACAAGCAAUGAGAAAUGCCAAAGAGCAUGUUAGAUUAUUACCUCACUCAGUCUGCUCCCCUAAUCCUAACACCACAUCUACCUCGCAGUCUCAACAGAGGAUUGAGCAUCA
# B5: chr7:152649051:152649153:-|CDS|ENSG00000196584|unk|total|mutant (ssRNA)
# RNA: GGGAGUUCUACAGUCCGACGAUCAGCUCUGAAGAAAUAAUCAAAUACUGCCUGGGAAGAUUUUUUUUGGUGUACUGCAGCCGCCGCACCCACUUACUUCUUACACUUUACUCACCCGAAAGUAUGUUUUGCCGUCACCCAUCUCAACAGAGGAUUGAGCAUCA
# B6: chr22:40861067:40861994:-|CDS|ENSG00000172404|control|control|control (ssRNA)
# RNA: GGGAGUUCUACAGUCCGACGAUCGAAAGUGAUCAAGAAAGAGAAGCUGAAGAUAAUGGAGAGUUGACAUUUUUUCUUGUAAAUAGUGUGGCCAAUGAAGAGGGCUUUGCAAAAGAAUGCAGCUGGAGAACACAGUCAUUCAACCAACAGAGGAUUGAGCAUCA
# B7: chr6:109481629:109481730:-|CDS|ENSG00000112365|unk|total|mutant (ssRNA)
# RNA: GGGAGUUCUACAGUCCGACGAUCGCUCAGUUCUUAAAAGUCUAUGACCUGGUAAAGGCUUACACAGACUUCCAAAAUAAUCACCGCUCCCCAAAGCCAACAACUUUGAACACUGCUGGUGCCCCAGUGGUUGUUAUCUCUAAUCAACAGAGGAUUGAGCAUCA
# B8: chr6:145382534:145384023:-|three_prime_utr|ENSG00000112425|control|control|control (ssRNA)
# RNA: GGGAGUUCUACAGUCCGACGAUCUCAACAUGAUUUAACAGAUCUAUAUGUUAAAGGAGAAAAAGAUAUGUGGAUGCUAUCAAUAGUAGCUGAAAAGCAUUUUCAGAAAUCUGUAAGUAGAGGAAAUGUAUUCAUAUGUUUCUACAACAGAGGAUUGAGCAUCA
# B9: chr17:29262523:29262623:-|3pUTR|ENSG00000108256|msi1_unk|FALSE|overlapping (ssRNA)
# RNA: GGGAGUUCUACAGUCCGACGAUCACUUUGACUGAUAUUGUAAUUUUCAAAUGUAUAAUAUGUUUACAGAUGUGCCCUGCAUUUAGUCUGCCUUGUUCCUAUUUUGAUUUUUGUUGAGUCUCCUGCCUGCUUGCCAAAAGCUAGCAACAGAGGAUUGAGCAUCA
# B10: chr12:6347307:6347408:-|3pUTR|ENSG00000111319|msi1|FALSE|unique (ssRNA)
# RNA: GGGAGUUCUACAGUCCGACGAUCGUCUGCUCCUCCUCUUGAACUUGGGUGGGAAACCCCACCCAAAAGCCCCCUUUGUUACUUAGGCAAUUCCCCUUCCCUGACUCCCGAGGGCUAGGGCUAGAGCAGACCCGGGUAAGUAAACAACAGAGGAUUGAGCAUCA
# B11: chr14:92163265:92163366:+|3pUTR|ENSG00000165934|msi1|FALSE|bound_elsewhere (ssRNA)
# RNA: GGGAGUUCUACAGUCCGACGAUCUAAUAUCAGACUCGAAUUACUAUUUCAUUCUAUUUCAAAUGCUUAUAAAGCUACUAUUGUAGAUUAUAGUGUUAAUGCAAAGUUUACAGACUUUUGAUAUGGAAAACCAGAUAAAACAAUCAACAGAGGAUUGAGCAUCA
# B12: ENSG00000198589:be:win_3351|CDS|ENSG00000198589|bound_else_gene|NA|bound_elsewhere_windowed (ssRNA)
# RNA: GGGAGUUCUACAGUCCGACGAUCCAGUCCUACUGAGGAAGCUAAUCUACCCACAGAGCUCCAAGAUAACAGUUUGUCUCCAGCUGCAUCUGAAGCCGGUGAAAAACUGGACAUGUUUGGUAAUGAUGACAAAUUAAUAUUUCACAACAGAGGAUUGAGCAUCA
# B13: chr17:5489330:5489445:+|CDS|ENSG00000167842|unk|total|mutant (ssRNA)
# RNA: GGGAGUUCUACAGUCCGACGAUCACGUUGACUUUCUUUGAUGAGCUUCAUAAUGUUGGCAGAGAUCAUGGGACCCGUGAUUUCCGGGAGAGUUCCGUAUCCCUGGUUCAGAACUCCAGAAAACUACAGAACAUCCGAGACAAUCAACAGAGGAUUGAGCAUCA
# B14: chr12:54350855:54350965:+|3pUTR|ENSG00000111481|msi1|total|mutant (ssRNA)
# RNA: GGGAGUUCUACAGUCCGACGAUCUUGCCCUGACAUUUUUGUAAAUUCUGUGCCCUUUGCUGCCGCUACACUUCAGAUUAAAGCCGGAGAAAGAAUGUGCUGAGUGUUUUCCUCCCUUUGCCUCUACCUGGCCCUCAUCCCAACCAACAGAGGAUUGAGCAUCA
# B15: chr7:128862928:128863052:+|CDS|ENSG00000128524|unk|FALSE|unique (ssRNA)
# RNA: GGGAGUUCUACAGUCCGACGAUCUAAGCUCAUCGCAGUGAUCGGAGACGAGGACACGGUGACUGGUUUCCUGCUGGGCGGCAUAGGGGAGCUUAACAAGAACCGCCAUCCCAAUUUCCUGGUGGUGGAGAAGGAUACAACCAUCAACAGAGGAUUGAGCAUCA
# B16: ENSG00000198589:be:win_2051|CDS|ENSG00000198589|bound_else_gene|NA|bound_elsewhere_windowed (ssRNA)
# RNA: GGGAGUUCUACAGUCCGACGAUCUACUGACUAUGCAUGAGGAUGACAAUCUAAUGGAUGUCCUACAGCUGCUUGUUGCAUUAAUGUCAGAACACCCUAACUCUAUGAUUCCUGCUUUUGACCAAAGGAAUGGGUUACGUGUUACAACAGAGGAUUGAGCAUCA
# B17: chr4:143221337:143221438:+|3pUTR|ENSG00000170185|unk|FALSE|unique (ssRNA)
# RNA: GGGAGUUCUACAGUCCGACGAUCUUGAAAGGUAAUAGAUUUUCCAGAAGUAAAAUCUGAUGGUUCUAAAUCAAUCAAUGUGAUAGUUCAUUUUUAACUCUUAGAAGAAUUCAGAGGAAAUUAACCCAGCUAAGUAAAAAAUCUCAACAGAGGAUUGAGCAUCA
# B18: chr5:138511037:138511180:-|CDS|ENSG00000120705|unk|total|mutant (ssRNA)
# RNA: GGGAGUUCUACAGUCCGACGAUCCACGGGCAAGUACUGUUUUGGCGUUGAAGAUACACUAAAGGCUUUGGAAAUGGGAGCUGCCGAAAUUCUAACCGUCUAUGAAAAUCUGGAUAUAAUGAGAUAUGUUCUUCAUUGCCAAGGCAACAGAGGAUUGAGCAUCA
# B19: chr10:58277235:58277315:+|CDS|ENSG00000122873|msi1_unk|total|mutant (ssRNA)
# RNA: GGGAGUUCUACAGUCCGACGAUCUAAAGAUCAUCGAAAUAAAGCUAUGAUAAACCUUCACAUCCAGAAAGACAACCCCAAGACCGUACAUGCUUUUGACAUGGAGGAUUUGGGAGAUAAAGCUGUGUACUGCCGUUGUUGGAGCAACAGAGGAUUGAGCAUCA
# B20: ENSG00000124766:be:win_3151|3pUTR|ENSG00000124766|bound_else_gene|NA|bound_elsewhere_windowed (ssRNA)
# RNA: GGGAGUUCUACAGUCCGACGAUCUUUCUCAGUGUAUUUUUGUAAAAAAUAUAUAAAGGGGGUGUUAAUCGGUGUAAAUCGCUGUUUGGAUUUCCUGAUUUUAUAACAGGGCGGCUGGUUAAUAUCUCACACAGUUUAAAAAAUCAACAGAGGAUUGAGCAUCA
# B21: chr4:52598568:52598706:-|three_prime_utr|ENSG00000109189|control|control|control (ssRNA)
# RNA: GGGAGUUCUACAGUCCGACGAUCGCAUUAUAUCACUAUUGUGAAAAGUCACGGCUUCUGGCUUUUGUUUGAUGAUGACAUUGUAGAGGUUGGUUUGCAGAUUAUUCUCCAGUAGUCAUAGAGCAUCAGUAGUAUUUCGGAGAACAACAGAGGAUUGAGCAUCA
# B22: ENSG00000198589:be:win_4851|CDS|ENSG00000198589|bound_else_gene|NA|bound_elsewhere_windowed (ssRNA)
# RNA: GGGAGUUCUACAGUCCGACGAUCCCAUGUGGAAGUAACUCCUCACACAGCACCUCCUGGUGUCAGUGCAGGCCCAGAUGCAAUCAGCGAGGUGCUAUCUACUCUUUCUUUAGAAGUCAAUAAGUCUCCGGAAACCAAAAAUGACAACAGAGGAUUGAGCAUCA
# Target: T1, UNK ZnF1-6 (called full-length)
# Assay: nsRBNS (natural sequence RNA bind-n-seq); RBNS binding buffer (assumed for nsRBNS): 25 mM Tris pH 7.5, 150 mM KCl, 3 mM MgCl2, 0.01% Triton X-100, 500 ug/ml BSA, 20 U/ml SUPERase-In, 4 C; UNK is unkempt and MSI1 is Musashi-1; names of the RNAs are library labels; protein concentration not given here; high values mean tight binding
row,Binder,binding signal
1,B1,0.629 enrichment R
2,B2,1.27 enrichment R
3,B3,0.594 enrichment R
4,B4,0.638 enrichment R
5,B5,1.12 enrichment R
6,B6,0.645 enrichment R
7,B7,0.451 enrichment R
8,B8,0.457 enrichment R
9,B9,0.807 enrichment R
10,B10,1.13 enrichment R
11,B11,0.421 enrichment R
12,B12,0.341 enrichment R
13,B13,0.491 enrichment R
14,B14,0.678 enrichment R
15,B15,0.777 enrichment R
16,B16,0.35 enrichment R
17,B17,0.783 enrichment R
18,B18,0.633 enrichment R
19,B19,0.467 enrichment R
20,B20,0.577 enrichment R
21,B21,1.6 enrichment R
22,B22,0.915 enrichment R
